# The other results are listed elsewhere or left out.
# What was measured:
# Assay in all cases: glycan array binding signal (z-score within array); higher = stronger binding
# Conditions in all cases: glycan notation: IUPAC condensed, linker removed
# Fuc(a1-2)Gal = target: Fuc(a1-2)Gal
# In short: (§1)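 From the Consortium for Functional Glycomics database, 3228 arrays were curated, keeping only those whose protein sequence was available. Binding is given as a within-array Z-score averaged across arrays sharing a protein sequence and across linkers. Negative Z-scores can be read as non-binding.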
# Fuc(a1-2)Gal(b1-3)GalNAc = target: Fuc(a1-2)Gal(b1-3)GalNAc
# In short: as §1
# [1] = target: Fuc(a1-2)Gal(b1-3)GalNAc(a1-3)[Fuc(a1-2)]Gal(b1-4)Glc
# In short: as §1
# [2] = target: Fuc(a1-2)Gal(b1-3)GalNAc(a1-3)[Fuc(a1-2)]Gal(b1-4)GlcNAc
# In short: as §1
# [3] = target: Fuc(a1-2)Gal(b1-3)GalNAc(b1-3)Gal
# In short: as §1
# [4] = target: Fuc(a1-2)Gal(b1-3)GalNAc(b1-3)Gal(a1-4)Gal(b1-4)Glc
# In short: as §1
# [5] = target: Fuc(a1-2)Gal(b1-3)GalNAc(b1-4)[Neu5Ac(a2-3)]Gal(b1-4)Glc
# In short: as §1
# Fuc(a1-2)Gal(b1-3)GlcNAc = target: Fuc(a1-2)Gal(b1-3)GlcNAc
# In short: as §1
# [6] = target: Fuc(a1-2)Gal(b1-3)GlcNAc(b1-2)Man(a1-3)[Fuc(a1-2)Gal(b1-3)GlcNAc(b1-2)Man(a1-6)]Man(b1-4)GlcNAc(b1-4)GlcNAc
# In short: as §1
# [7] = target: Fuc(a1-2)Gal(b1-3)GlcNAc(b1-2)Man(a1-3)[Fuc(a1-2)Gal(b1-3)GlcNAc(b1-2)Man(a1-6)]Man(b1-4)GlcNAc(b1-4)[Fuc(a1-6)]GlcNAc
# In short: as §1
# [8] = target: Fuc(a1-2)Gal(b1-3)GlcNAc(b1-3)Gal(b1-4)Glc
# In short: as §1
# [9] = target: Fuc(a1-2)Gal(b1-3)GlcNAc(b1-3)GalNAc
# In short: as §1
# [10] = target: Fuc(a1-2)Gal(b1-3)GlcNAc(b1-3)[Fuc(a1-2)Gal(b1-3)GlcNAc(b1-6)]GalNAc
# In short: as §1
# [11] = target: Fuc(a1-2)Gal(b1-3)GlcNAc(b1-3)[Gal(b1-4)GlcNAc(b1-6)]Gal(b1-4)Glc
# In short: as §1
# [12] = target: Fuc(a1-2)Gal(b1-3)GlcNAc(b1-3)[Neu5Ac(a2-6)Gal(b1-4)GlcNAc(b1-6)]Gal(b1-4)Glc
# In short: as §1
# [13] = target: Fuc(a1-2)Gal(b1-3)GlcNAc6S
# In short: as §1
# [14] = target: Fuc(a1-2)Gal(b1-3)[Fuc(a1-4)]GlcNAc
# In short: as §1
# [15] = target: Fuc(a1-2)Gal(b1-3)[Fuc(a1-4)]GlcNAc(b1-2)Man(a1-3)[Fuc(a1-2)Gal(b1-3)[Fuc(a1-4)]GlcNAc(b1-2)Man(a1-3)]Man(b1-4)GlcNAc(b1-4)GlcNAc
# In short: as §1
# [16] = target: Fuc(a1-2)Gal(b1-3)[Fuc(a1-4)]GlcNAc(b1-2)Man(a1-3)[Fuc(a1-2)Gal(b1-3)[Fuc(a1-4)]GlcNAc(b1-2)Man(a1-6)]Man(b1-4)GlcNAc(b1-4)[Fuc(a1-6)]GlcNAc(b1-4)[Fuc(a1-6)]GlcNAc
# In short: as §1
# [17] = target: Fuc(a1-2)Gal(b1-3)[Fuc(a1-4)]GlcNAc(b1-3)[Fuc(a1-3)[Gal(b1-4)]GlcNAc(b1-6)]Gal(b1-4)Glc
# In short: as §1
# [18] = target: Fuc(a1-2)Gal(b1-3)[Fuc(a1-4)]GlcNAc(b1-3)[Gal(b1-4)GlcNAc(b1-6)]Gal(b1-4)Glc
# In short: as §1
# [19] = target: Fuc(a1-2)Gal(b1-4)Fuc(a1-3)]GlcNAc(b1-2)Man(a1-3)[Fuc(a1-2)Gal(b1-4)[Fuc(a1-3)]GlcNAc(b1-2)Man(a1-6)]Man(b1-4)GlcNAc(b1-4)GlcNAc
# In short: as §1
# Fuc(a1-2)Gal(b1-4)Glc = target: Fuc(a1-2)Gal(b1-4)Glc
# In short: as §1
# Fuc(a1-2)Gal(b1-4)Glc6S = target: Fuc(a1-2)Gal(b1-4)Glc6S
# In short: as §1
# Fuc(a1-2)Gal(b1-4)GlcNAc = target: Fuc(a1-2)Gal(b1-4)GlcNAc
# In short: as §1
# [20] = target: Fuc(a1-2)Gal(b1-4)GlcNAc(b1-2)Man
# In short: as §1
# [21] = target: Fuc(a1-2)Gal(b1-4)GlcNAc(b1-2)Man(a1-3)[Fuc(a1-2)Gal(b1-4)GlcNAc(b1-2)Man(a1-6)]Man(b1-4)GlcNAc(b1-4)GlcNAc
# In short: as §1
# [22] = target: Fuc(a1-2)Gal(b1-4)GlcNAc(b1-2)Man(a1-3)[Fuc(a1-2)Gal(b1-4)GlcNAc(b1-2)Man(a1-6)]Man(b1-4)GlcNAc(b1-4)[Fuc(a1-6)]GlcNAc
# In short: as §1
# [23] = target: Fuc(a1-2)Gal(b1-4)GlcNAc(b1-2)[Fuc(a1-2)Gal(b1-4)GlcNAc(b1-4)]Man(a1-3)[Fuc(a1-2)Gal(b1-4)GlcNAc(b1-2)Man(a1-6)]Man(b1-4)GlcNAc(b1-4)GlcNAc
# In short: as §1
# [24] = target: Fuc(a1-2)Gal(b1-4)GlcNAc(b1-3)Gal(b1-4)GlcNAc
# In short: as §1
# [25] = target: Fuc(a1-2)Gal(b1-4)GlcNAc(b1-3)Gal(b1-4)GlcNAc(b1-2)Man(a1-3)[Fuc(a1-2)Gal(b1-4)GlcNAc(b1-3)Gal(b1-4)GlcNAc(b1-2)Man(a1-6)]Man(b1-4)GlcNAc(b1-4)GlcNAc
# In short: as §1
# [26] = target: Fuc(a1-2)Gal(b1-4)GlcNAc(b1-3)Gal(b1-4)GlcNAc(b1-3)Gal(b1-4)GlcNAc
# In short: as §1
# [27] = target: Fuc(a1-2)Gal(b1-4)GlcNAc(b1-3)GalNAc
# In short: as §1
# [28] = target: Fuc(a1-2)Gal(b1-4)GlcNAc(b1-3)[Fuc(a1-2)Gal(b1-4)GlcNAc(b1-6)]GalNAc
# In short: as §1
# [29] = target: Fuc(a1-2)Gal(b1-4)GlcNAc(b1-3)[Fuc(a1-3)[Gal(b1-4)]GlcNAc(b1-6)]Gal(b1-4)Glc
# In short: as §1
# [30] = target: Fuc(a1-2)Gal(b1-4)GlcNAc(b1-6)GalNAc
# In short: as §1
# [31] = target: Fuc(a1-2)Gal(b1-4)GlcNAc6S
# In short: as §1
# [32] = target: Fuc(a1-2)Gal(b1-4)[Fuc(a1-3)]GlcNAc
# In short: as §1
# [33] = target: Fuc(a1-2)Gal(b1-4)[Fuc(a1-3)]GlcNAc(b1-2)Man(a1-3)[Fuc(a1-2)Gal(b1-4)[Fuc(a1-3)]GlcNAc(b1-2)Man(a1-6)]Man(b1-4)GlcNAc(b1-4)[Fuc(a1-6)]GlcNAc
# In short: as §1
# [34] = target: Fuc(a1-2)Gal(b1-4)[Fuc(a1-3)]GlcNAc(b1-2)[Fuc(a1-2)Gal(b1-4)[Fuc(a1-3)]GlcNAc(b1-4)]Man(a1-3)[Fuc(a1-2)Gal(b1-4)[Fuc(a1-3)]GlcNAc(b1-2)Man(a1-6)]Man(b1-4)GlcNAc(b1-4)GlcNAc
# In short: as §1
# [35] = target: Fuc(a1-2)Gal(b1-4)[Fuc(a1-3)]GlcNAc(b1-3)Gal(b1-4)[Fuc(a1-3)]GlcNAc
# In short: as §1
# [36] = target: Fuc(a1-2)Gal(b1-4)[Fuc(a1-3)]GlcNAc(b1-3)Gal(b1-4)[Fuc(a1-3)]GlcNAc(b1-3)Gal(b1-4)[Fuc(a1-3)]GlcNAc
# In short: as §1
# [37] = target: Fuc(a1-2)Gal(b1-4)[Fuc(a1-3)]GlcNAc(b1-3)GalNAc
# In short: as §1
# [38] = target: Fuc(a1-2)Gal(b1-4)[Fuc(a1-3)]GlcNAc(b1-3)[Neu5Ac(a2-6)Gal(b1-4)GlcNAc(b1-6)]Gal(b1-4)Glc
# In short: as §1
# [39] = target: Fuc(a1-2)Gal3S(b1-4)GlcNAc
# In short: as §1
binder,measurement,setting,value
"SSR1 (Sclerotium rolfsii), A0A0M3KL30 (protein) TYKITVRVYQTNPDAFFHPVEKTVWKYANGGTWTITDDQHVLTMGGSGTSGTLRFHADNGESFTATFGVHNYKRWCDIVTNLAADETGMVINQQYYSQKNREEARERQLSNYQVKNAKGRNFQIVYTEAEGNDLHANLIIG",glycan array binding signal (z-score),Fuc(a1-2)Gal,-0.318
same,glycan array binding signal (z-score),Fuc(a1-2)Gal(b1-3)GalNAc,-0.29
same,glycan array binding signal (z-score),[1],-0.333
same,glycan array binding signal (z-score),[2],0.377
same,glycan array binding signal (z-score),[3],-0.344
same,glycan array binding signal (z-score),[4],-0.335
same,glycan array binding signal (z-score),[5],-0.338
same,glycan array binding signal (z-score),Fuc(a1-2)Gal(b1-3)GlcNAc,-0.329
same,glycan array binding signal (z-score),[6],-0.342
same,glycan array binding signal (z-score),[7],-0.315
same,glycan array binding signal (z-score),[8],-0.337
same,glycan array binding signal (z-score),[9],-0.35
same,glycan array binding signal (z-score),[10],-0.302
same,glycan array binding signal (z-score),[11],-0.321
same,glycan array binding signal (z-score),[12],-0.342
same,glycan array binding signal (z-score),[13],-0.339
same,glycan array binding signal (z-score),[14],-0.348
same,glycan array binding signal (z-score),[15],-0.329
same,glycan array binding signal (z-score),[16],-0.331
same,glycan array binding signal (z-score),[17],-0.333
same,glycan array binding signal (z-score),[18],-0.35
same,glycan array binding signal (z-score),[19],-0.281
same,glycan array binding signal (z-score),Fuc(a1-2)Gal(b1-4)Glc,-0.315
same,glycan array binding signal (z-score),Fuc(a1-2)Gal(b1-4)Glc6S,-0.345
same,glycan array binding signal (z-score),Fuc(a1-2)Gal(b1-4)GlcNAc,-0.343
same,glycan array binding signal (z-score),[20],-0.348
same,glycan array binding signal (z-score),[21],-0.303
same,glycan array binding signal (z-score),[22],-0.335
same,glycan array binding signal (z-score),[23],-0.332
same,glycan array binding signal (z-score),[24],-0.335
same,glycan array binding signal (z-score),[25],-0.288
same,glycan array binding signal (z-score),[26],-0.303
same,glycan array binding signal (z-score),[27],0.054
same,glycan array binding signal (z-score),[28],-0.309
same,glycan array binding signal (z-score),[29],-0.328
same,glycan array binding signal (z-score),[30],0.086
same,glycan array binding signal (z-score),[31],-0.375
same,glycan array binding signal (z-score),[32],-0.313
same,glycan array binding signal (z-score),[33],-0.3
same,glycan array binding signal (z-score),[34],-0.309
same,glycan array binding signal (z-score),[35],-0.306
same,glycan array binding signal (z-score),[36],-0.324
same,glycan array binding signal (z-score),[37],-0.326
same,glycan array binding signal (z-score),[38],-0.337
same,glycan array binding signal (z-score),[39],-0.327

# From the supplement of paper PMC8728848
